Patent publication US20250026846A1 (JCR PHARMACEUTICALS, published 2025)

T1: recombinant monkey TfR (r monkey TfR: Sino Biological Inc.), crab-eating monkey TfR extracellular region with … (crab-eating monkey (Macaca fascicularis))
T1 construct: Bought from Sino Biological; also called r monkey TfR-ECD (Histag); not shown: histidine tag at the N-terminus
T1 chain: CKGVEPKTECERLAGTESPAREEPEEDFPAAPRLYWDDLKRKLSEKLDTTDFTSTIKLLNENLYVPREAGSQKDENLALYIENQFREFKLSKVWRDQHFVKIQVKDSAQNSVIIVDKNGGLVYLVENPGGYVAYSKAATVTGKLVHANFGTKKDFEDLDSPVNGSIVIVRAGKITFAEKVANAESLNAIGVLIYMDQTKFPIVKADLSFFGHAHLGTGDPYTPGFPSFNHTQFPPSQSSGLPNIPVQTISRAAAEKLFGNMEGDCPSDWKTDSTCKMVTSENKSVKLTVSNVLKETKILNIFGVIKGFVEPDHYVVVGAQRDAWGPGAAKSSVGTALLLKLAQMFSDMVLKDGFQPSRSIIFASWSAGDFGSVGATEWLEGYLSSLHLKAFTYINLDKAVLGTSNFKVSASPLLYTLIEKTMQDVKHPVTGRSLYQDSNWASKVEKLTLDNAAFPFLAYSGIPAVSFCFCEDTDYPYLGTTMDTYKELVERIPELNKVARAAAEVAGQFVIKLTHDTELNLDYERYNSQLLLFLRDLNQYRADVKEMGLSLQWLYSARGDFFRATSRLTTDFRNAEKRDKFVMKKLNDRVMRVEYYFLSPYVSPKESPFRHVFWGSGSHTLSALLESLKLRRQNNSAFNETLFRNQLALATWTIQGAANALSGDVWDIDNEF


Tests used:
[1] = target: T2, recombinant human TfR (r human TfR: Sino Biological Inc.), hTfR extracellular region with a histidine tag at … (human, UniProt P02786); assay: BLI (Octet RED96), His-tagged TfR ECD on Ni-NTA sensor
T2 construct: Bought from Sino Biological; also called r human TfR-ECD (Histag); recombinant hTfR; not shown: histidine tag at the N-terminus
Protocol: (§1) Each of the sample solutions prepared above by 2-fold dilution steps was added, 200 μL/well, to a 96-well plate, black (Greiner Bio-One Inc.). Each of the r human TfR-ECD (Histag) solution and the r monkey TfR-ECD (Histag) solutions prepared above was added, 200 μL/well, to predetermined wells. To respective wells for baseline, dissociation and washing were added HBS-P+, 200 μL/well. To wells for regeneration were added 10 mM Glycine-HCl (pH 1.7), 200 μL/well. To wells for activation was added 0.5 mM NiCl₂ solution, 200 μL/well. The plate and biosensor (Biosensor/Ni-NTA: ForteBio Inc., a division of Pall Corporation) were set in the prescribed positions of Octet RED96.
(§2) The measurement was performed at 25 to 30° C.
(§3) The affinity of the purified product of Fc-Fab (3N) obtained in Example 20-3 to human TfR and monkey TfR was measured by the method described in Example 7.

[2] = target: T1, recombinant monkey TfR (r monkey TfR: …); assay: as above
Protocol: as §1, §2, §3

[3] = target: T2, recombinant human TfR (r human TfR: …); assay: as above; remark: listed apart in the source
Protocol: as §1, §2
(§4) The affinity of the I2S-anti-hTfR antibodies obtained in Example 22 to human TfR and monkey TfR was measured in accordance with the method described in Example 7.

[4] = target: T1, recombinant monkey TfR (r monkey TfR: …); assay: as above
Protocol: as §1, §2, §4

[5] = target: T2, recombinant human TfR (r human TfR: …); assay: BLI (Octet RED96)

Kd [1] [nM]	koff [1] [s⁻¹]	kon [1] [M⁻¹ s⁻¹]	Kd [2] [nM]	koff [2] [s⁻¹]	kon [2] [M⁻¹ s⁻¹]	Kd [3] [nM]	koff [3] [s⁻¹]	kon [3] [M⁻¹ s⁻¹]	Kd [4] [nM]	koff [4] [s⁻¹]	kon [4] [M⁻¹ s⁻¹]	fold affinity against I2S-anti-hTfR antibody 3 [5] [fold]	Binder
< 0.001	< 1e-07	667000	0.861	0.000209	243000	–	–	–	–	–	–	–	Fc-Fab (3N): human IgG Fc region-added Fab of humanized anti-hTfR antibody 3N (Fc fusion, The light chain comes from pE-hygr(LC3); also called hFc-humanized anti-hTfR antibody) light: DIVMTQTPLSLSVTPGQPASISCRSSQSLVHSNGNTYLHWYLQKPGQSPQLLIYKVSNRFSGVPDRFSGSGSGTDFTLKISRVEAEDVGVYYCSQSTHVPWTFGQGTKVEIKRTVAAPSVFIFPPSDEQLKSGTASVVCLLNNFYPREAKVQWKVDNALQSGNSQESVTEQDSKDSTYSLSSTLTLSKADYEKHKVYACEVTHQGLSSPVTKSFNRGEC heavy: [sequence of human IgG1 Fc omitted]GGGGSGGGGSGGGGSGGGGSGGGGSEVQLVQSGAEVKKPGESLKISCKGSGYSFMNYWLGWVRQMPGKGLEWMGDIYPGGDYPTYSEKFKVQVTISADKSISTAYLQLSSLKASDTAMYYCARSGNYDEVAYWGQGTLVTVSSASTKGPSVFPLAPSSKSTSGGTAALGCLVKDYFPEPVTVSWNSGALTSGVHTFPAVLQSSGLYSLSSVVTVPSSSLGTQTYICNVNHKPSNTKVDKKVEPKSCDKTHT
–	–	–	–	–	–	0.126	0.000104	829000	1.09	0.00041	377000	–	I2S-anti-hTfR antibody 3 (fusion protein of hI2S and humanized anti-hTfR antibody No. 3) (other) light: DIVMTQTPLSLSVTPGQPASISCRSSQSLVHSNGNTYLHWYLQKPGQSPQLLIYKVSNRFSGVPDRFSGSGSGTDFTLKISRVEAEDVGVYYCSQSTHVPWTFGQGTKVEIKRTVAAPSVFIFPPSDEQLKSGTASVVCLLNNFYPREAKVQWKVDNALQSGNSQESVTEQDSKDSTYSLSSTLTLSKADYEKHKVYACEVTHQGLSSPVTKSFNRGEC heavy: EVQLVQSGAEVKKPGESLKISCKGSGYSFTNYWLGWVRQMPGKGLEWMGDIYPGGDYPTYSEKFKVQVTISADKSISTAYLQWSSLKASDTAMYYCARSGNYDEVAYWGQGTLVTVSS[sequence of human IgG1 constant region omitted]GSSETQANSTTDALNVLLIIVDDLRPSLGCYGDKLVRSPNIDQLASHSLLFQNAFAQQAVCAPSRVSFLTGRRPDTTRLYDFNSYWRVHAGNFSTIPQYFKENGYVTMSVGKVFHPGISSNHTDDSPYSWSFPPYHPSSEKYENTKTCRGPDGELHANLLCPVDVLDVPEGTLPDKQSTEQAIQLLEKMKTSASPFFLAVGYHKPHIPFRYPKEFQKLYPLENITLAPDPEVPDGLPPVAYNPWMDIRQREDVQALNISVPYGPIPVDFQRKIRQSYFASVSYLDTQVGRLLSALDDLQLANSTIIAFTSDHGWALGEHGEWAKYSNFDVATHVPLIFYVPGRTASLPEAGEKLFPYLDPFDSASQLMEPGRQSMDLVELVSLFPTLAGLAGLQVPPRCPVPSFHVELCREGKNLLKHFRFRDLEEDPYLPGNPRELIAYSQYPRPSDIPQWNSDKPSLKDIKIMGYSIRTIDYRYTVWVGFNPDEFLANFSDIHAGELYFVDSDPLQDHNMYNDSQGGDLFQLLMP
–	–	–	–	–	–	0.0275	1.9e-05	692000	< 0.001	< 1e-07	383000	~5	I2S-anti-hTfR antibody 3N (fusion protein of hI2S and humanized anti-hTfR antibody No. 3N) (other) light: DIVMTQTPLSLSVTPGQPASISCRSSQSLVHSNGNTYLHWYLQKPGQSPQLLIYKVSNRFSGVPDRFSGSGSGTDFTLKISRVEAEDVGVYYCSQSTHVPWTFGQGTKVEIKRTVAAPSVFIFPPSDEQLKSGTASVVCLLNNFYPREAKVQWKVDNALQSGNSQESVTEQDSKDSTYSLSSTLTLSKADYEKHKVYACEVTHQGLSSPVTKSFNRGEC heavy: EVQLVQSGAEVKKPGESLKISCKGSGYSFMNYWLGWVRQMPGKGLEWMGDIYPGGDYPTYSEKFKVQVTISADKSISTAYLQLSSLKASDTAMYYCARSGNYDEVAYWGQGTLVTVSS[sequence of human IgG1 constant region omitted]GSSETQANSTTDALNVLLIIVDDLRPSLGCYGDKLVRSPNIDQLASHSLLFQNAFAQQAVCAPSRVSFLTGRRPDTTRLYDFNSYWRVHAGNFSTIPQYFKENGYVTMSVGKVFHPGISSNHTDDSPYSWSFPPYHPSSEKYENTKTCRGPDGELHANLLCPVDVLDVPEGTLPDKQSTEQAIQLLEKMKTSASPFFLAVGYHKPHIPFRYPKEFQKLYPLENITLAPDPEVPDGLPPVAYNPWMDIRQREDVQALNISVPYGPIPVDFQRKIRQSYFASVSYLDTQVGRLLSALDDLQLANSTIIAFTSDHGWALGEHGEWAKYSNFDVATHVPLIFYVPGRTASLPEAGEKLFPYLDPFDSASQLMEPGRQSMDLVELVSLFPTLAGLAGLQVPPRCPVPSFHVELCREGKNLLKHFRFRDLEEDPYLPGNPRELIAYSQYPRPSDIPQWNSDKPSLKDIKIMGYSIRTIDYRYTVWVGFNPDEFLANFSDIHAGELYFVDSDPLQDHNMYNDSQGGDLFQLLMP

Like-named read-outs stand apart in the source and are kept apart here.
